Some of the results follow. Rule as the data show it: active = 3.2 or more and inactive = the rest. The signal is at background level for most entries.
Experiments:
Experiment in all cases: enrichment score (SH2-bound / input frequency) (ratio); bacterial display of known human phosphotyrosine sites (pTyr-Var adds point mutants) read by sequencing; higher = stronger binding; tyrosines were phosphorylated by kinases first
Conditions in all cases: peptide library: pTyr-Var
SHP2 C-SH2 domain E139D = target: SHP2 C-SH2 domain E139D
[1] = target: SHP2 C-SH2 domain wild-type
SHP2 N-SH2 domain L43F = target: SHP2 N-SH2 domain L43F
SHP2 N-SH2 domain T42A = target: SHP2 N-SH2 domain T42A
SHP2 N-SH2 domain T52S = target: SHP2 N-SH2 domain T52S
[2] = target: SHP2 N-SH2 domain wild-type
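Also: displayed peptides selected on beads carrying the immobilized SH2 domain, with library peptides lacking any tyrosine serving as negative controls.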

Row | Binder | enrichment score (SHP2 C-SH2 domain E139D) | enrichment score [1] | enrichment score (SHP2 N-SH2 domain L43F) | enrichment score (SHP2 N-SH2 domain T42A) | enrichment score (SHP2 N-SH2 domain T52S) | enrichment score [2]
1 | ETKKQYDSFTF [TMED3_Y85_YF] | inactive: 0.678 | inactive: 0.633 | inactive: 0.686 | inactive: 0.492 | inactive: 0.546 | inactive: 0.886
2 | DGNTRYSTFSE [TKTL1_Y318_D315N] | inactive: 0.588 | inactive: 0.702 | inactive: 0.686 | inactive: 0.599 | inactive: 0.708 | inactive: 0.752
3 | LHSDHYSPSGR [TMPRSS12_Y23_Y19H] | inactive: 0.944 | inactive: 0.9 | inactive: 1.05 | inactive: 0.746 | inactive: 0.969 | inactive: 1.04
4 | KGYRGYSYDDI [TMEM230_Y110] | inactive: 0.827 | inactive: 0.848 | inactive: 0.825 | inactive: 0.817 | inactive: 0.796 | inactive: 1
5 | PPPPAYDDMAQ [TNK2_Y635_V638M] | inactive: 0.414 | inactive: 0.475 | inactive: 0.575 | inactive: 0.453 | inactive: 0.506 | inactive: 0.62
6 | VDEERYDIEAK [TNNI3_Y112] | inactive: 0.52 | inactive: 0.518 | inactive: 0.493 | inactive: 0.478 | inactive: 0.556 | inactive: 0.464
7 | ETKKQYNSFTF [TMED3_Y85_D86N_YF] | inactive: 0.589 | inactive: 0.688 | inactive: 0.652 | inactive: 0.827 | inactive: 0.66 | inactive: 0.787
8 | PPGRSYSPCDF [TNS1_Y793_Y796C_YF] | inactive: 0.673 | inactive: 0.67 | inactive: 0.85 | inactive: 0.809 | inactive: 0.676 | inactive: 0.82
9 | EFEGLYQEGGG [TMEM159_Y159] | inactive: 0.714 | inactive: 0.651 | inactive: 0.873 | inactive: 0.747 | inactive: 0.871 | inactive: 0.954
10 | TEAGNYKLCFD [TMED1_Y103_D102N] | inactive: 0.618 | inactive: 0.583 | inactive: 0.526 | inactive: 0.521 | inactive: 0.533 | inactive: 0.639
11 | SGGLDYGMVGG [TNRC6B_Y1382_M1380L] | inactive: 0.603 | inactive: 0.577 | inactive: 0.657 | inactive: 0.554 | inactive: 0.465 | inactive: 0.769
12 | VEDHYYEGGIG [TKT_Y564] | inactive: 0.716 | inactive: 0.607 | inactive: 0.683 | inactive: 0.59 | inactive: 0.636 | inactive: 0.842
13 | KMLEKYKEQLN [TLK2_Y259_R262Q] | inactive: 1.09 | inactive: 1.22 | inactive: 1.32 | inactive: 0.929 | inactive: 1.04 | inactive: 0.896
14 | STDDGYIDLQF [TMEM230_Y29] | inactive: 0.787 | inactive: 0.612 | inactive: 1.46 | inactive: 2.02 | inactive: 1.9 | inactive: 0.956
15 | FSPCDYQPCLA [TNS1_Y798_Y796C_YF] | active: 3.38 | inactive: 3.04 | active: 3.82 | inactive: 2.83 | active: 3.26 | inactive: 2.69
16 | DASENYFVTDS [TMEM240_Y77] | inactive: 0.716 | inactive: 0.524 | inactive: 0.605 | inactive: 0.442 | inactive: 0.511 | inactive: 0.653
17 | FRAPGYREVVI [TNS2_Y673_YF] | inactive: 1.16 | inactive: 0.915 | inactive: 1.26 | inactive: 1.14 | inactive: 1.39 | inactive: 0.999
18 | TVEDHYFEGGI [TKT_Y563_YF] | inactive: 0.864 | inactive: 0.84 | inactive: 0.933 | inactive: 0.758 | inactive: 0.707 | inactive: 0.745
19 | TYGQVYKGRHV [TNIK_Y40] | inactive: 0.851 | inactive: 0.925 | inactive: 1.15 | inactive: 0.688 | inactive: 1.03 | inactive: 0.959

From the supplement of paper PMC10369915
